Test results taken from publication PMC4336329 (PLoS ONE, 2015).
Out of some 310,000 compounds screened, about 2,200 (0.71%) showed an effect of 50% or more. The effect is printed as a negative number. Some of the results follow.

molecular target: human ether-à-go-go-related gene (hERG) potassium channel (human, UniProt Q12809); test: primary screen, population patch clamp on CHO cells stably expressing hERG
Sequence (Q12809 whole entry, looked up): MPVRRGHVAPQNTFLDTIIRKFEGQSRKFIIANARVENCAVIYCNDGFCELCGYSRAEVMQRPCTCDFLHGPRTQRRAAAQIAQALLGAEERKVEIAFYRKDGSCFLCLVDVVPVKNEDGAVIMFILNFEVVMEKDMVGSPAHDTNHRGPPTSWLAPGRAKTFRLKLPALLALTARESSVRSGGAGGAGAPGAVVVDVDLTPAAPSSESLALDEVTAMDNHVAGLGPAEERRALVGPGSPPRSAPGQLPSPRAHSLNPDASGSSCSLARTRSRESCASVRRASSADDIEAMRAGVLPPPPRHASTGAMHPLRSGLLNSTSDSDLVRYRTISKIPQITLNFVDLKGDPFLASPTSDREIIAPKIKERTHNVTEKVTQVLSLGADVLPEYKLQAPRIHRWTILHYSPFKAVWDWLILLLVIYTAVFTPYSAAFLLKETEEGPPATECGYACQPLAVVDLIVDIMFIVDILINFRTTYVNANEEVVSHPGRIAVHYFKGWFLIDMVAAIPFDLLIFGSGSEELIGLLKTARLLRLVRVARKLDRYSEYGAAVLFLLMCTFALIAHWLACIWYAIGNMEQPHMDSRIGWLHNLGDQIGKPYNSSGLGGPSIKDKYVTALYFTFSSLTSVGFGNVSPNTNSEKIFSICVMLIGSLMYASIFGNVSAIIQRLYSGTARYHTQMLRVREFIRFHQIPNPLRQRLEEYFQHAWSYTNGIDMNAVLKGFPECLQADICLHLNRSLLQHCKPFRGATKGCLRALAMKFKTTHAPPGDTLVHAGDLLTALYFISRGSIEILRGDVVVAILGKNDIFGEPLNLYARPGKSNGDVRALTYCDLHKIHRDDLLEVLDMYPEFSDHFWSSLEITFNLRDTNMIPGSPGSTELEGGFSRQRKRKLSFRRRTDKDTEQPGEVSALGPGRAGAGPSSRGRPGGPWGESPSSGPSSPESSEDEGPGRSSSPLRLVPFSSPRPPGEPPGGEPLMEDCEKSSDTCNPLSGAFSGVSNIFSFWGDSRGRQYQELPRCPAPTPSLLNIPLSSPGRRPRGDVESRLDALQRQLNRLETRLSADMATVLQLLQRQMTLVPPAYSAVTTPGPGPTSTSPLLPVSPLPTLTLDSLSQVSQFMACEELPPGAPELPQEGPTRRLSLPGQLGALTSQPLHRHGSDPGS

| SMILES | hERG current change (%, negative = inhibition) at 1uM |
| --- | --- |
| Cc1ccc(CN2CCc3c(OCC(=O)Nc4cc(C)ccc4C)cccc3C2=O)cc1 | -0.915% |
| O=C(CNc1cccc2ccccc12)N/N=C/c1ccc([N+](=O)[O-])o1 | -3.85% |
| Cc1cc(C)cc(N(C(=O)c2csnn2)C(C(=O)NC2CCCC2)c2ccccn2)c1 (stereo not drawn) | -0.609% |
| O=C(Nc1nccs1)c1cc(-c2ccccc2)nn1-c1ccccc1 | 6.15% |
| CC1CCN(c2nc3c(c(=O)n(C)c(=O)n3C)n2CCSc2nc3ccccc3s2)CC1 | 0.675% |
| CCCc1nc2oc(C(=O)c3ccccc3)c(N)c2c2c1COC(C)(C)C2 | 21.9% |
| CN(C)Cc1ccccc1Sc1ccc(O)cc1O.O.O=C(O)/C=C\C(=O)O | 8.45% |
| COCC(C)NS(=O)(=O)c1ccc(OC)cc1 (stereo not drawn) | 9.51% |
| COc1ccc(CCNC(=O)CC2SC(=NCCc3ccccc3)NC2=O)cc1 (stereo not drawn) | -1.05% |
| O=C(CSc1nc(-c2ccco2)cc(C(F)(F)F)n1)Nc1cccnc1 | 21% |
| CC12CCC(=O)N1C(C(=O)N1CCN(c3ccccc3)CC1)CS2 (stereo not drawn) | -19.6% |
| C/C(N)=C(/C#N)C(=O)COC(=O)c1ccncc1 | 18.5% |
| CCOC(=O)C1CCCN(C(=O)CC(c2ccccc2)c2ccccc2)C1 (stereo not drawn) | -2.54% |
| O=C(Nc1ccc2ccccc2c1)/C(=C\c1ccc2c(c1)OCO2)NC(=O)c1ccco1 | 2.11% |
| COc1ccc(NC(=S)N2CCN(S(=O)(=O)c3ccc(OC)cc3)CC2)cc1 | 8.93% |
| COc1ccc(Br)cc1-c1nc(CCl)cs1.Cl | 10.6% |
| COc1ccc(C(=O)NNC(=O)CSc2nnc(-c3cccnc3)o2)cc1 | 19.4% |
| O=C(CCc1ccccc1)NCc1ccccn1 | -10.1% |
| C=CCn1c(NCc2ccc(N(C)C)cc2)nc2ccccc21 | 11.2% |
| CCOc1ccc(OCC)c(S(=O)(=O)N2CCCCC2)c1 | 8.67% |
| CCCCOc1ccc(N(CC(=O)NCc2ccccc2)C(=O)c2csnn2)cc1 | -12.8% |
| CC(=O)c1cc(C)ccc1OC(=O)c1cccc2nc(C)oc12 | 10.8% |

| SMILES | hERG current change (%, negative = inhibition) at 1uM |
| --- | --- |
| CCN(CC(=O)Nc1ccc(NC(C)=O)cc1)C(=O)c1cc(S(=O)(=O)N2CCCCCC2)ccc1OC | 6.41% |
| Cc1ccc(NC(=S)NCCN2CCOCC2)cc1 | -3.53% |
| Cc1nn2c(NCCN3CCOCC3)c3c(nc2c1-c1ccccc1)CCCC3 | -1.48% |
| CCOc1ccccc1N(CC(=O)Nc1ccccc1C(=O)NCc1ccco1)S(C)(=O)=O | 2.08% |
| O=C(NC1=NCCS1)c1ccncc1 | 0.0978% |
| C=CCN(c1ccccc1)S(=O)(=O)c1ccc(Cl)c(C(=O)OCC(=O)N(C)C2CCS(=O)(=O)C2)c1 (stereo not drawn) | 7.22% |
| CN(Cc1ccccc1)C(=O)COC(=O)c1ccc(S(=O)(=O)N(C)C)cc1 | 5.98% |
| CN(C)C=Nc1c(C(=O)c2ccccc2)sc2nccc(N(C)C)c12 | 1.89% |
| COc1ccc(N=Cc2cc(Cc3ccccc3Cl)cc([N+](=O)[O-])c2O)cc1OC | 8.67% |
| Cc1cccc2cc3ccccc3nc12 | 9.43% |
| O=C(Cc1ccccc1)Nc1cc2c(cc1Cl)OCCCO2 | 12% |
| Cc1ccc(NC(=O)NCC(c2cccnc2)N2CCOCC2)cc1 (stereo not drawn) | 11.5% |
| Clc1ccc(OCc2nn3c(C4CCCCC4)nnc3s2)c(Cl)c1 | 5.75% |
| O=C(CCc1nnc2ccc(N3CCOCC3)nn12)Nc1ccc(F)cc1F | 7.21% |
| CCc1ccc(NC(=O)CSc2nc(=O)n(CCCN(C)C)c3c2CCC3)cc1 | 0.263% |
| COc1ccc2oc(C(=O)OCC(=O)N(Cc3ccccc3)C(C)C)c(C)c2c1 | 8.79% |
| COc1cc(NC(=O)C2CCN(S(=O)(=O)c3ccc(Cl)cc3)CC2)ccc1-n1cnnn1 | 18.4% |
| O=C(NCCS(=O)(=O)N1CCN(Cc2ccccc2)CC1)c1ccccc1 | -3.02% |
| O=C(NCc1ccc2c(c1)OCO2)c1cccc(S(=O)(=O)N2CCCCC2)c1 | 9.24% |
| COc1ccc(NC(=O)CN(C)C(=O)/C=C/c2cn(-c3ccccc3)nc2-c2ccc(F)cc2)cc1 | 5.97% |
| Cc1nn(C(=O)c2nn(C)cc2[N+](=O)[O-])c(C)c1Cl | 4.26% |
| COc1ccc(NS(=O)(=O)c2cccc(C(=O)NNC(=O)c3ccc(=O)[nH]c3)c2)cc1 | -7.12% |

| SMILES | hERG current change (%, negative = inhibition) at 1uM |
| --- | --- |
| CCNC(=O)Cn1c(=O)c(=O)n(Cc2ccccc2)c2ccc(Cl)cc21 | 6.7% |
| COc1ccc(C(=O)N(C)C2(C)CCS(=O)(=O)C2)cc1OC (stereo not drawn) | 2.23% |
| COc1cccc2c(=O)n(CC(=O)Nc3cccc(F)c3)ccc12 | 10.5% |
| COc1cccc(N2CCN(C(=O)c3ccc(CS(=O)c4ccc(Cl)cc4)o3)CC2)c1 (stereo not drawn) | 0.509% |
| C=CCCC1(C)C(=O)N(c2ccccc2)c2ccccc21 (stereo not drawn) | 4.88% |
| COc1ccc(-c2cc(C)no2)cc1S(=O)(=O)NCCCN1CCCCCC1 | 14.5% |
| Cc1cccc(N2CCN(C(=O)c3cc4c(=O)n(C)c5ccccc5c4n3C)CC2)c1C | 8.68% |
| COc1ccc(C2CCCN2C(=O)Nc2cccc(C(C)=O)c2)cc1OC (stereo not drawn) | 3.98% |
| O=C(NCCO)N1c2ccccc2Sc2ccccc21 | 6.79% |
| COc1ccc(OC)c(/C=C2\SC(=S)N(Cc3cccnc3)C2=O)c1 | 0.429% |
| O=C(Oc1c(Cl)cc(Cl)c2cccnc12)N1CCCCC1 | 7.26% |
| C=CCc1ccc(OCCCCOc2ccc(C(=O)O)cc2)c(OC)c1 | 11.5% |
| O=C(NC(=S)N1CCCCC1)c1cccs1 | 11.1% |
| O=c1cc(Cl)c(-c2ccccc2)nn1Cc1ccc(Cl)cc1 | 8.53% |
| Cc1noc(C)c1S(=O)(=O)NC1CCCc2ccccc21 (stereo not drawn) | 8.72% |
| COC(=O)CCCC1=CC2=C(c3ccccc3)C(=O)C(C)(OC(=O)C3CCCC3)C(=O)C2=CN1Cc1ccc(OC)cc1 (stereo not drawn) | 12% |
| Cc1ccc2c(c1)N(CC(=O)N1CCCCCC1)C(=O)C(C)O2 (stereo not drawn) | 7.72% |
| O=C1NC(=S)N/C1=C/C=C/c1ccccc1 | 4.7% |
| Cc1sc2nc3c(C(=O)N4CCCC4)cc(C(=O)c4ccccc4O)cn3c(=O)c2c1C | -3.59% |
| CCNC(=O)NC(=O)CSc1ccc2ccccc2c1 | 12% |
| Cc1cccc(OCC(=O)NCCCNC(=O)c2cnccn2)c1 | 9.69% |
| CCCc1cc(=O)oc2c(C)c(OC(C)C(=O)NCCN3CCOCC3)ccc12 (stereo not drawn) | -5.59% |

| SMILES | hERG current change (%, negative = inhibition) at 1uM |
| --- | --- |
| COc1ccc(-c2noc(CCC(=O)NC3CCCCC3)n2)cc1 | 10.6% |
| O=C(Cc1cn(Cc2cccc(Cl)c2)c2ccccc12)N1CCCC1 | 3.34% |
| O=C(COc1ccc2c(-c3ccccc3)cc(=O)oc2c1)NCC(O)c1ccccc1 (stereo not drawn) | -1.49% |
| O=c1[nH]c(C2CCCN(S(=O)(=O)c3ccc(F)cc3)C2)nc2c1nnn2Cc1ccccc1 (stereo not drawn) | 7.82% |
| Cc1ccc(SCc2ccc(C(=O)N3CCCCC3)cc2)cc1 | 14.5% |
| CC1CCC(NC(=O)c2ccc3nc[nH]c3c2)CC1 (stereo not drawn) | 0.812% |
| COc1cccc(/C=N/NC(=O)CNC(=O)c2ccc(S(=O)(=O)N3CCOCC3)cc2)c1OC | 3.36% |
| Nc1nc2n(n1)C(c1ccco1)CC(c1ccccc1)N2 (stereo not drawn) | -1.88% |
| O=C(Nc1nnc(Cc2ccc(Cl)cc2)s1)c1ccncc1 | 10.3% |
| COc1ccc(NC(=O)Nc2cccnc2)cc1 | 4.13% |
| Cc1ccsc1C(=O)C1CCCN(Cc2cc3ccccc3o2)C1 (stereo not drawn) | 0.734% |
| Cn1c(CNC(=O)c2ccc(Cl)c(Cl)c2)nnc1SCC(=O)Nc1sc2c(c1C#N)CCCC2 | 11.2% |
| COc1cc(OC)c(C=O)c(OC(=O)N2CCOCC2)c1 | 17.7% |
| COc1ccc(-c2ccc(SCc3ccccn3)nn2)cc1OC | 14.5% |
| O=C(CN(C(=O)c1ccc2c(c1)OCCO2)c1ccccc1)NCC1CCCO1 (stereo not drawn) | 19.6% |
| CCOc1ccc(C(C)NC(=O)c2cccs2)cc1OCC (stereo not drawn) | 5.69% |
| O=C(CSc1nc(-c2ccccc2)nc2ccccc12)Nc1cccc(C(=O)O)c1 | 11.9% |
| CC1CCCN(C(=O)c2ccc(Br)c(S(=O)(=O)N3CCOCC3)c2)C1 (stereo not drawn) | 2.23% |
| COc1cccc(CN(C)C(=O)c2cccc(S(=O)(=O)NCc3ccccc3)c2)c1OC | 6.03% |
| COc1ccc(/C=C(\NC(=O)c2ccc(OC)c(OC)c2)C(=O)N2CCN(C)CC2)cc1 | 2.66% |
| Cn1cc(C(=O)C(=O)NC2CCCCC2)c2ccccc21 | 7.31% |
